Reference: PubChem BioAssay AID1963576 (National Center for Advancing Translational Sciences (NCATS), 2024)
The whole screen tested about 46,000 compounds, of which about 60 (0.1%) were called active. Roughly 3% stayed inconclusive and do not appear here. The call rests on the fitted dose curve; in most records, active means well fitted inhibition curve with a large enough effect; inconclusive means small, poorly fitted or top-dose-only effect; inactive means no such curve, though single readings can be large or run the other way. This is one part of the list.

Experiment: Primary qHTS assay for Inhibitors of ovarian cancer metastasis using an organotypic tumor microenvironment (TME) model. Further: nearly all actives have a fitted effect of over 65% in size.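 On activity change, negative = inhibition: plate controls were DMSO wells for no effect and tomatine positive control wells for full effect.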
Settings: SKOV3ip1-GFP adhesion/invasion on 3D omental model, fluorescence; series mostly up to 45.8 µM; activity change, negative = inhibition: at the top concentration
How it was run: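 A 3D layer of primary human omental fibroblasts, mesothelial cells, fibronectin and collagen I, grown 48 hr, received SKOV3ip1-GFP cells in serum-free medium plus compounds at 0.36-46 umol/L. After 2 hr RT and 16 hr 37 C, fixed adherent GFP cells were counted; normalized to DMSO and tomatine.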

Activity change, negative = inhibition, inactive:
COc1ccc(CCNC(=O)c2ccc3c(c2)CCN3S(=O)(=O)c2ccccc2)cc1 -10.7%, CCOc1cc(CNC(=O)c2cc(-c3ccccc3)n[nH]2)cc(OCC)c1OCC 2.27%, O=C(NCCc1ccc(F)cc1)C(=O)NCC(c1ccco1)S(=O)(=O)c1ccccc1 (stereo not drawn) 4.1%, CC(Oc1ccccc1)C(=O)Nc1ccc(C(=O)OCc2cc(=O)n3nc(C(C)C)sc3n2)cc1 (stereo not drawn) 12.6%, CCN(CC)S(=O)(=O)c1ccc(NC(=O)Cn2ncc3c([nH]c4ccccc43)c2=O)cc1 2.52%, Cc1[nH]c2ccc(C(=O)N3CCN(c4ccccc4F)CC3)cc2c1C -4.75%, Cc1cc(C)cc(OCC(=O)Nc2nc(-c3ccc(F)cc3)ns2)c1 -9.71%, CCOc1ccccc1NC(=O)CSc1nc2ccccc2nc1N1CCOCC1 -6.27%, COC(=O)c1cc(NS(=O)(=O)c2ccc3c(c2)OCCO3)ccc1Cl 9.02%, Cc1cccn2c(=O)c(C(=O)N3CCN(c4ccccc4F)CC3)cnc12 -5.57%, CCCCN(C)CCNC(=O)c1nn(-c2ccc(OC)c(Cl)c2)c(=O)c2c1c1ccccc1n2C 7.31%, Cc1cc(C)c(S(=O)(=O)NCc2ccc3c(c2)CCN3C(=O)c2ccccc2)c(C)c1 -0.0548%, CCN(CC)c1ccc2cc(-c3nnc(Nc4ccc(C)cc4)s3)c(=O)oc2c1 -16.2%, COc1ccc2c(C)c(CCC(=O)NCCc3ccccc3)c(=O)oc2c1 -8.84%, COC(=O)C1=C(CS(=O)(=O)c2ccc(C)cc2C)NC(=O)NC1c1ccc(C)cc1 (stereo not drawn) -18.3%, Cc1cc2c(cc1S(=O)(=O)N(CCN(C)C)Cc1ccccc1)OCC(=O)N2 10.7%, COc1ccccc1C(c1c(O)cc(C)n(Cc2ccco2)c1=O)N1CCCCC1 (stereo not drawn) -28.2%, CCC(Oc1ccccc1F)C(=O)Nc1cc(-c2ccccc2)no1 (stereo not drawn) 1.43%, COc1ccc(S(=O)(=O)N(CC(=O)NCCSc2ccc(C)cc2)c2ccc(C)cc2)cc1 6.01%, CCOc1ccccc1NC(=O)CSc1c2c(nc3ccc(Cl)cc13)CCCC2 6.35%, Cc1nc2c(c(C)c1CCC(=O)NCc1ccc(F)cc1)c(=O)n(C)c(=O)n2C -3.56%, CC(=O)N1CCC(N(Cc2ccc(C)o2)C(=O)Nc2ccccc2F)CC1 -13.2%, COc1cccc(-c2nc(-c3ccc(Br)o3)no2)c1 -8.23%, Cc1[nH]c2ccc(C(=O)NCCCN3CCCCC3)cc2c1C 9.98%, CCOC(=O)c1cc(OC(=O)c2ccccc2F)n(-c2ccccc2)n1 -2.33%, O=C(NCc1ccccc1)c1cc(Sc2cccc(Cl)c2)nc2ccccc12 -13.6%, CC(=O)N1c2ccccc2C(=O)C1N1CCN(c2ccc(Cl)cc2)CC1 (stereo not drawn) -2.41%, COc1ccc(NCc2cc3cc4c(cc3n(CC(=O)Nc3ccc(C)cc3C)c2=O)OCO4)cc1 -13.5%, CCOc1ccccc1NC(=O)Cn1nnc(C(=O)NCc2cccs2)c1N 5.68%, CC1=C(c2ccc(C(C)C)cc2)S(=O)(=O)N=C1N1CCN(c2ccccc2F)CC1 -0.279%, Cc1ccccc1Nc1nn2c(=O)c3ccc(C(=O)NCC(C)c4ccccc4)cc3nc2s1 (stereo not drawn) -4.9%, Cc1ccc(-c2nc(S(=O)(=O)c3ccc(F)cc3)c(N3CCN(c4ccccc4)CC3)o2)cc1 4.92%, Nc1nc2c(ncn2COCCO)c(=O)[nH]1 -4.73%, CCOC(=O)c1cccnc1SCC(=O)N(CC)c1cccc(C)c1 3.98%, Cc1ccc(C)c(N2CCN(C(=O)CCc3nnc4n(C)c(=O)c5ccccc5n34)CC2)c1 8.6%, CN1CCN(C(CNC(=O)C(=O)Nc2ccc(Cl)cc2)c2cccnc2)CC1 (stereo not drawn) 20.8%, CCOCCCNC(=O)c1c[nH]c2ccc(S(=O)(=O)N(C)c3ccc(Cl)cc3F)cc2c1=O -9.06%, NC(=O)c1nc(Nc2ccccc2)sc1NC(=O)c1c(F)cccc1F 7.87%, CCOC(=O)c1ccc(NC(=O)c2c(NCc3sccc3C)sc3c2CCC(C)C3)cc1 (stereo not drawn) -2.61%, CCc1ccccc1NC(=O)c1oc(=O)c2ccccc2c1-c1ccccc1 5.13%, CC(C)Cn1nc(NC(=O)c2cccc(Cl)c2)c2cc3ccccc3nc21 -10.9%, COc1ccc(F)cc1S(=O)(=O)NCC(c1ccco1)S(=O)(=O)c1cccs1 (stereo not drawn) 8.75%, COc1cccc(NC(=O)CSc2nc(=O)n(Cc3cccnc3)c3c2CCC3)c1 -2.02%, Cc1cccc2c(=O)cc(CSc3ccccc3NC(=O)C(C)C)[nH]c12 1.48%

outcome, inactive:
CCc1ccc(NC(=O)CSc2nc3nc(C)cc(C)n3n2)cc1, COc1ccc(-c2noc(N3CCC(C(=O)Nc4cccc(C)c4C)CC3)n2)cc1, CCOc1ccc(/C=C/c2nc(C#N)c(N3CCN(CC)CC3)o2)cc1, Cc1cc(F)ccc1NC(=O)c1csc2c1CCC(C)C2 (stereo not drawn), Cc1ccccc1NC(=O)CSc1c(C(C)C)cnc2c1c(=O)n(C)c(=O)n2C, COc1ccc(C(=O)Nc2nnc(SCc3cc(=O)c4cc(C)ccc4[nH]3)s2)cc1OC, COc1ccc(CNC(=O)Cn2c(=O)c3cccn3c3cccnc32)cc1, Cc1nn(-c2ccccc2)c2sc(C(=O)Nc3ccc(Cl)cc3Cl)cc12, COc1ccc(C(=O)NCCn2cc(SCC(=O)Nc3ccc4c(c3)OCCO4)c3ccccc32)cc1, Cc1cccc(N2CCN(S(=O)(=O)c3cc(C(=O)Nc4ccc(Oc5ccccc5)cc4)ccc3F)CC2C)c1 (stereo not drawn), CCOc1ccccc1NC(=O)c1nc(S(=O)(=O)Cc2cccc(C)c2)ncc1Cl, CCOC(=O)C1CCCN(S(=O)(=O)c2cc(-c3onc(C)c3C)ccc2OC)C1 (stereo not drawn), CCc1c(-c2ccccc2)nc2ccccc2c1C(=O)NC(C)c1ccccc1 (stereo not drawn), CCCN(c1ccccc1F)S(=O)(=O)c1ccc2c(c1)C(C)(C)C(=O)N2C, COc1ccc(-c2noc(CNC(=O)c3cc(OC)c(OC)c(OC)c3)n2)cc1, CC1CCc2onc(C(=O)Nc3ccc(Cl)cc3)c2C1 (stereo not drawn), CCOc1c(Br)cc(C2C=C(C(=O)O)Nc3ncnn32)cc1OC (stereo not drawn), CC(C)C[C@H](N)c1nnc(SCc2ccc(Cl)cc2Cl)o1, CC(C)(C)c1ccc(OCC(=O)Nc2ccc(C(=O)OC3CCCCC3)cc2)cc1
